Measured values reported in the supplement of paper PMC11417369.
± gives the standard deviation of the averaged measurements. The list shows a part of the results.

Test system: PfAP2-EXP AP2 domain (GST-tagged)
Assay: gcPBM binding intensity (ln(normalized median fluorescence intensity)); higher = stronger DNA binding
How it was run: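 For binding intensity, the highest Masliner-normalised natural-log median intensity across replicate spots of either probe orientation was taken. Protein bound to the array was stained with Alexa488 anti-GST antibody and scanned at 488 nm. The protein, GST-tagged P. falciparum DNA-binding domains from E. coli at about 25 μg on average, had been applied for 1 h to an Agilent 4 × 180k array of primer-extended double-stranded 36-bp intergenic genomic probes and negative controls.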

Sequence	gcPBM binding intensity (ln)
AAACTCTCTTATATTAAACACACATATATATATGTA [CACACA_site8865]	8.44 ± 0.28
CCTTTATTAAATAAATGTACATATTTTTGTGTTCTT [XGTACX_site2052]	8.59 ± 0.28
AAACAAAAGATATATACACACTAAACATAAAAAAAA [CACACA_site6161]	8.66 ± 0.45
AAAAACTTTTCAAGTAGTACCATATCTACAATAGTA [XGTACX_site8927]	8.18 ± 0.4
AATAAAAATAAAATTGTATATTTTAAATGAAAATAA [CACACA_negctrl_site898]	8.28 ± 0.44
GTTGGTAGGATGTATGGTACACGTAGTATTTTTCTT [XGTACX_site2]	8.77 ± 0.41
TTCAAGATTTATTATACACACATATTAAAATATATA [CACACA_site4479]	8.27 ± 0.26
AATCTATCAAAGTGTACATGCAATAAAAAAAAAAAA [TGCATGCA_site103]	9.01 ± 0.48
AAAAAATTATTATGAACACACATTTATTATATTCAT [CACACA_site1566]	8.03 ± 0.35
AAACATTTTCATTTGACACACATCATATATTTATAT [CACACA_site1794]	8.48 ± 0.61
TTTTTTTTTCCCCCATGTACATAAATAAGTATATCT [XGTACX_site6965]	9.19 ± 0.33
GCGTGCGTGTACTTAACACACATAATATGTATTTAT [CACACA_site1247]	8.4 ± 0.34
TTAATGTACAGACACCCACACACAAACAAATATATA [CACACA_site8888]	8.93 ± 0.65
AAAAGAAAAAAAAGTACACACATGTATATTAAGCGT [CACACA_site5402]	8.88 ± 0.42
CTTTCATTTCTATCTACACACATATTTTTTCCAAGT [CACACA_site2972]	8.88 ± 0.48
AATTATATGAAATAAACACACATATGCAATATTGCA [CACACA_site6988]	8.73 ± 0.37
ATATGTACTATACGCACACACACTCACATATATATA [CACACA_site3239]	9.12 ± 0.32
AAAAATATATATATATATATATATATATTATTTTTT [TGCATGCA_negctrl_site378]	8.59 ± 0.25
TAACTTAATTTTAATGCACACAATTTATATATATAT [CACACA_site6022]	9.9 ± 0.11
TATATATATAAATACAGTACATATATAATATTTTGA [XGTACX_site637]	8.6 ± 0.2
ATTATATATATCAGGTGTACGTAAAAAAAATGGACG [XGTACX_site1028]	9.26 ± 0.46
TTTTTTTTTTTTTTTACACACTCCAATAAAAAAGAA [CACACA_site2119]	8.3 ± 0.45
TTTTTTTATTAATGTAGTACAATATAATGTTATATT [XGTACX_site2295]	8.54 ± 0.29

Sequence	gcPBM binding intensity (ln)
GAGGTCTTTTTTAATGTGCACATATATATATATATA	10.3 ± 0.25
TAATTTATAAATATAATATTTATGTATATGATGTTT [CACACA_negctrl_site464]	8.17 ± 0.4
TATAAAAATATATTTACACACTATAAATATCGAAAG [CACACA_site6896]	8.49 ± 0.38
TACAACTTAATATGTACACACAAATATATATATATA [CACACA_site5138]	9.99 ± 0.23
ATTCATCCAATAATGTGAATTATCATGATAAACTTA [TGCATGCA_negctrl_site406]	8.26 ± 0.43
TTTATAAATAAACACACACACATGTGAACATAAAAA [CACACA_site5110]	8.82 ± 0.44
GATACCTATAGACACACACACATACCTATATACATA [CACACA_site7586]	8.79 ± 0.3
GAAATACATTTTAAAAAATAAGTAATTATAAAATAA [TGCATGCA_negctrl_site303]	8.21 ± 0.38
ATTATTCTATATGAAACATGCATACATTTGTATTTT [TGCATGCA_site823]	8.54 ± 0.29
ATATATGTAAATGAATGTACATTATTTTATATATTA [XGTACX_site8460]	8.39 ± 0.34
ATCAAAATTGTCATTACACACCTTTATTTTTAGAAT [CACACA_site1813]	8.56 ± 0.35
TCCAATAATTTATAAAAAAAAAAAGGGAAAATGTAT [TGCATGCA_negctrl_site492]	8.28 ± 0.26
TTGGATTTTTCCTATGAACACACGGGGTTACAATTA [CACACA_site449]	8.4 ± 0.45
TTAATATGAGAATAATGTACAAGAAAATATTACATA [XGTACX_site6609]	8.57 ± 0.47
ATATATTTATTATTAACATGCAATCATTATATATAA [TGCATGCA_site404]	8.47 ± 0.45
AAAATAATAAAAAACTGTACGAATTAAAAATTAACA [XGTACX_site8454]	8.64 ± 0.22
CCTAATTTTATTAGGGTGCATTTTTAGTTAAATATA	8.48 ± 0.27
ACAATATATAAAATATGTACATAATATATATAATGA [XGTACX_site8731]	8.52 ± 0.29
ATCCACAAATTAACAAGTACATATATATATATATAT [XGTACX_site1267]	10.2 ± 0.26
TAAGTTATATGTACTACACACGTACACAAAATAAGA [CACACA_site9237]	8.82 ± 0.3
TGATGAAAATTTTTCTGTACAAAAAGTATGAAGGTA [XGTACX_site8901]	8.88 ± 0.38
ATTTATTTGTTTATTTGTTTATTTGTTTATTTGTTT [CACACA_negctrl_site1386]	8.72 ± 0.38
AATTTAATATAATGCACACATAAAAAAAAATTCAAA [CACACA_site2062]	8.64 ± 0.071

Sequence	gcPBM binding intensity (ln)
ATGAAAACCATGACGGGTACTCATTTATTATTTTAT [XGTACX_site6724]	8.45 ± 0.46
TTAAGAATCTATACTAGTACATATATGTATACAAGC [XGTACX_site8025]	8.74 ± 0.35
TATATATATATGTGTAGTACAACAAATATGAAAAAT [XGTACX_site4059]	10.035 ± 0.007
ATTGTGTTAATAAAATGTACATTTTCTCTACTTTAA [XGTACX_site1199]	8.8 ± 0.35
TGTAGAACAAAAAATTGTACATATTTGTAAAAAAAA [XGTACX_site3850]	8.47 ± 0.35
TATATATAGAAACACACACACATATATATATATATA [CACACA_site773]	10.1 ± 0.43
GTATATATATATAAAAGTACATGTTATGAAAAAAAA [XGTACX_site5410]	8.85 ± 0.47
TTTTTTCTCAAAAAAAAAACCTATGGTTATTAAGAT [XGTACX_negctrl_site534]	8.18 ± 0.45
ATTAAGTATATTTCTGCACACAAAAAAAAAAACCAA [CACACA_site9342]	8.55 ± 0.41
TTCTAAACACATTGACAAATTAATATATTACAGCAA [GTGCAC_negctrl_site121]	8.56 ± 0.48
TTATAATTCTATTATCTGTTCTTTTTATATTTTTTT [CACACA_negctrl_site855]	8.53 ± 0.4
TTATTTTTCAATGAAAAGGATTATATATATATATAT [CACACA_negctrl_site757]	10.2 ± 0.13
TATAAGAAAAATAACACACACATAAACATAAATACA [CACACA_site5536]	9.06 ± 0.35
AAAAAAAAAAAAAAATGTACATAAAAATGATATAAT [XGTACX_site4096]	8.7 ± 0.55
AAAATTTATAGTATGGTGCATAAAAATATATATATA	9.86 ± 0.23
GTAAATATAAACTCAGCACACAAACATATATATGTC [CACACA_site9326]	8.79 ± 0.39
TTAAATAAAAGGTTTAGTACTTAAAATAAGAAATGA [XGTACX_site6341]	8.54 ± 0.38
TTATATATATTTAAAAAAATAACATAAATAAATAAA [CACACA_negctrl_site347]	8.32 ± 0.41
TTTTATTTATCTTAATGTACACATTTATATATATAT [XGTACX_site8588]	9.55 ± 0.11
TATAATAATTAAAAGTGTACTAAATTTTTACATATA [XGTACX_site2523]	8.2 ± 0.3
CACTTTTTTTTTTACTGTACATATACAAATTAAAAA [XGTACX_site1565]	8.67 ± 0.4
TGGGTGTAGAACAATTGTACTTTGTAAAAATATAAG [XGTACX_site8464]	8.81 ± 0.41
TTTTTTTTCAATGGTTGTACAAAGTAAAACAACAAA [XGTACX_site1582]	8.46 ± 0.26

Sequence	gcPBM binding intensity (ln)
ATCCATCTTTTAATTTGTACTTATTCTTTTTTCTTT [XGTACX_site5299]	9 ± 0.67
ATTAGTTTTATATATAGTACATATAATTTTGAAGGT [XGTACX_site7445]	9.36 ± 0.52
ATATATATATGTAATAGTACATATGATAGTTTGTCA [XGTACX_site1545]	9.495 ± 0.064
TATTCATAATTTTAATGTACAAAATGGTTTGTAATA [XGTACX_site8493]	8.15 ± 0.35
TTGTAATTTATTCAAACACACAATTTGGACCTTTTT [CACACA_site1063]	8.3 ± 0.44
AAAGATAAATTAAAAAGTACATATTTATTCAATGTA [XGTACX_site8543]	8.31 ± 0.2
AATATATATATATTATCACACACTCACGTTTGACAA [CACACA_site8130]	8.61 ± 0.4
TATGATATATATAATACACACATATACATAAGATCT [CACACA_site1119]	8.48 ± 0.45
TAAAAAAAACGAACAAGTACACATAAAAAAAAATTA [XGTACX_site5982]	8.68 ± 0.38
ATTATATCATATATATGTACACATATATAACATGAT [XGTACX_site7]	8.38 ± 0.38
ACATAATTAACAAATACACACACACCCACCCACAAA [CACACA_site8069]	9.18 ± 0.65
TTCAATTTTTTATGAACACACAAAAAAAAAAAAAAA [CACACA_site2533]	8.14 ± 0.57
ATATATAAGGATGTCACACATAAATATTAACACTAA [CACACA_site5101]	8.39 ± 0.4
ATTTGTGATTTGTGTGTGCACGTATTTACAGAACAA [GTGCAC_site9498]	9.2 ± 0.26
AAGAAAAAATATATATATATATATATATATAATATG [TGCATGCA_negctrl_site417]	8.75 ± 0.042
TTATATTATTTTTATACATGCATTTCTATATATTTT [TGCATGCA_site164]	9.2 ± 0.3
TATATTAAATAAAAAGTGCATGTCTCATAAGATGGA [GTGCAC_site9520]	8.68 ± 0.38
ATAGGGAATTTATGCACACAGTTAAGGGGGAAAATT [CACACA_site5183]	9.43 ± 0.37
TATAAATAAAGCAGTACACACATTTATTTTAGATAC [CACACA_site7566]	8.65 ± 0.28
ATAAAATGTTAAGGGTGTACTTTACACATCTCCTAT [XGTACX_site4699]	8.34 ± 0.32
